Measured values taken from PMC10752582 (2023).

Tests used:
[1] = target: 6xHis-BRAF kinase domain D594G (amino acids 442-723 with 16 solubilizing mutations) (UniProt P15056 442-723, D594G | I543A | I544S | I551 K | Q562R | L588N | K630S | F667E | Y673S | A688R …, biotin (Sulfo-NHS-biotin, 50 molar excess) in the pull-downs on streptavidin beads); test: SPR
[2] = target: 6xHis-BRAF kinase domain, wild type (amino acids 442-723 with 16 solubilizing mutations) (UniProt P15056 442-723, I543A | I544S | I551 K | Q562R | L588N | K630S | F667E | Y673S | A688R | L706S …, biotin (Sulfo-NHS-biotin, 50 molar excess) in the pull-downs on streptavidin beads); test: SPR

Kd [1]: > 0.4 µM
Kd [2]: > 0.4 µM
B1: His/MBP-BRAF NT1 ([…]) (domain or fragment)
chain: MAALSGGGGGGAEPGQALFNGDMEPEAGAGAGAAASSAADPAIPEEVWNIKQMIKLTQEHIEALLDKFGGEHNPPSIYLEAYEEYTSKLDALQQREQQLLESLGNGTDFSVSSSASMDTVTSSSSSSLSVLPSSLSVFQNPTDVARSNPK[about 80 residues omitted here]ENVPLTTHNFVRKTFFTLAFCDFCRKLLFQGFRCQTCGYKFHQRCSTEVPLMCVNYDQLDL
